This note sets out measurements from paper PMC5892938.

The list shows a part of the results. The source does not settle which construct or isoform was used.

This assay addresses GST-SBP-ILF3 (Homo sapiens) (UniProt Q12906). As to the kind of experiment: targeted RNA Bind-n-Seq. As to conditions: RBNS binding buffer: 25 mM Tris pH 7.5, 150 mM KCl, 3 mM MgCl2, 0.1% Tween, 0.5 mg/mL BSA, 1 mM DTT; 27 nM protein, 750 pM RNA pool; temperature not stated; high values mean tight binding; sequences stand for … in GGGUAAAAGCGAGGUGAA…CGGGACAAGUAUUAUGGG
Consider “UUUUUUUUUUGAGAUGGUGUCCGUCUCCUA [tttttgagapaired]”, for which the binding signal (log2 fold change) was found to be 0.82.

For the sequence “UUUUUUUUUUGAGAUCGAAUCGAUCUCCGG [tttttgagapaired]”, the binding signal (log2 fold change) stood at 0.178.

Regarding “UUUUUUUUUUGAGAACGAGACGUUCUUCUA [tttttgagapaired]”, the binding signal (log2 fold change) was 0.325.

In the case of “GUGUGGUGUGUUGGCGUCUAACACACUACA [gtspaired]”, the binding signal (log2 fold change) is -0.744.

“UUUUUUUUUUGAGAGCGAAACGCUCUCCUG [tttttgagapaired]”: the binding signal (log2 fold change) amounted to 0.324.

As for “UUUUUUUUUUGAGACUGAUUCAGUCUUCUA [tttttgagapaired]”, the binding signal (log2 fold change) was -0.307.

Consider “GUGUGUUGUGUUGGUACCUAACACAACGCG [gtspaired]”, for which the binding signal (log2 fold change) is -0.53.

Turning to “UUUUUUUUUUGAGACUGUAGCAGUUUCCAG [tttttgagapaired]”, the binding signal (log2 fold change) turned out to be 0.689.

In the case of “UUUUUUUUUUGAGACUGCAUCAGUCUCCGG [tttttgagapaired]”, the binding signal (log2 fold change) came out at 0.235.

Regarding “GUGUGUGGUGUUGGACCCUAACACCGCGCA [gtspaired]”, the binding signal (log2 fold change) is -0.141.

Consider “UUUUUUUUUUGAGACCGCUACGGUCUUCUA [tttttgagapaired]”, for which the binding signal (log2 fold change) amounted to 0.701.

“GGUGGUUGUGUUGGUACCUAACACAAUCGC [gtspaired]”: the binding signal (log2 fold change) is -0.759.

Regarding “UUUUUUUUUUGAGAGGGAGUCCCUCUCCAG [tttttgagapaired]”, the binding signal (log2 fold change) was determined as 0.673.

Take “UUUUUUUUUUGAGACUGCAUCAGUCUUCUG [tttttgagapaired]”: the binding signal (log2 fold change) turned out to be 0.0595.

As to “UUUUUUUUUUGAGACCGAAACGGUCUCCUG [tttttgagapaired]”, the binding signal (log2 fold change) worked out at 0.688.

Turning to “UUUUUUUUUUGAGAGCGGGUCGCUCUUCUA [tttttgagapaired]”, the binding signal (log2 fold change) was found to be 0.564.

Take “UUUUUUUUUUGAGACGGAUCCCGUCUCCAG [tttttgagapaired]”: the binding signal (log2 fold change) was 0.76.

In the case of “GUGUUGUGUGUUGGUGCCUAACACACAGCG [gtspaired]”, the binding signal (log2 fold change) was -0.739.

On to “UUUUUUUUUUGAGAUGGCUACCAUCUCCUG [tttttgagapaired]”, for which the binding signal (log2 fold change) was determined as 0.596.

For “UUUUUUUUUUGAGAUGGCGACUAUCUCCAG [tttttgagapaired]”, the binding signal (log2 fold change) was 0.511.

As for “UUUUUUUUUUGAGACCGAUCCGGUCUCCAG [tttttgagapaired]”, the binding signal (log2 fold change) came to 0.754.

Take “UUUUUUUUUUGAGAUGGAUGCCGUCUCCGG [tttttgagapaired]”: the binding signal (log2 fold change) amounted to 0.595.

With “UUUUUUUUUUGAGACCGACUCGGUCUCCGG [tttttgagapaired]”, the binding signal (log2 fold change) turned out to be 0.441.

As for “GUGUGUGGUGUUGGCCCCUAACACCAUACA [gtspaired]”, the binding signal (log2 fold change) was determined as 0.0429.

For the sequence “UUUUUUUUUUGAGAGCGAAACGUUCUUCUA [tttttgagapaired]”, the binding signal (log2 fold change) turned out to be 0.0287.

With “GUUGGUGGUGUUGGCCUCUAACACCGCCGA [gtspaired]”, the binding signal (log2 fold change) is -0.506.

As for “UUUUUUUUUUGAGACGGGAUCCGUCUUCUG [tttttgagapaired]”, the binding signal (log2 fold change) amounted to 0.379.

On to “UUUUUUUUUUGAGAGGGCACCCCUCUCCUA [tttttgagapaired]”, for which the binding signal (log2 fold change) turned out to be 0.504.
